Laboratory results taken from the supplement of paper PMC11417369.
± gives the standard deviation of the averaged measurements. The list shows a part of the results.

Test system: PfAP2-G AP2 domain (GST-tagged)
Test: gcPBM binding intensity (ln(normalized median fluorescence intensity)); higher = stronger DNA binding
Summary of the method: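 The highest Masliner-normalised natural-log median intensity across replicate spots of either probe orientation is reported as binding intensity. GST-tagged P. falciparum DNA-binding domains expressed in E. coli were applied for 1 h to an Agilent 4 × 180k array of primer-extended double-stranded 36-bp intergenic genomic probes plus negative controls, and bound protein was detected with Alexa488 anti-GST antibody and scanned at 488 nm.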

Sequence | gcPBM binding intensity (ln)
CGTATGCAAGGAACCACACACACACCCATAAATGTA [CACACA_site749] | 10.3 ± 0.12
AAAAAATAGACATATACACACATATGTATTTATAAT [CACACA_site5225] | 9.925 ± 0.021
TTCTTATTTTATATTTCACACATTTTTACTATACTT [CACACA_site5817] | 10.08 ± 0.071
GTATTCAAAAGTGAAACATGCAATAATATATATATA [TGCATGCA_site617] | 9.87 ± 0.12
AAAAAAAAAAAAAATACACACGTGAATGTATTGTTT [CACACA_site4856] | 10.08 ± 0.085
TCTTGACTAAATATATGTACATATATTTTAATAATA [XGTACX_site701] | 11.3 ± 0.86
TAAGTGCTTTTCAACTGTACCTTCCATTTATTTATT [XGTACX_site8589] | 11 ± 0.61
ACTACATAATATTTACGTACCTAAAAAATTCTTATA [XGTACX_site509] | 11.2 ± 0.74
AAGGAGCCTATGAACACACACATGTACCTATATTAA [CACACA_site7838] | 11.1 ± 0.62
ATACGTATTTATTTCACACACGTTAAAAAAATAAAA [CACACA_site6027] | 10.3 ± 0.4
AGAATGAAATAATATACACACAAAGGAAAAATGTAA [CACACA_site3911] | 10.02 ± 0.064
ATATATATATATATATGTACATAATTAATAATTAGA [XGTACX_site5672] | 11.3 ± 0.83
TCTTATCCTACTTTTATTTTTACTTTTTTTTCTTAT [CACACA_negctrl_site111] | 10.1 ± 0.014
TATATATATATATGTATATATGTATATCTATATTTA [CACACA_negctrl_site131] | 9.92 ± 0.55
TAAATTGAGTATATTACACACATATAAATATATTAT [CACACA_site4027] | 9.98 ± 0.085
TGGATTCGTATATGTAGTACTATTTATATGTGATTT [XGTACX_site1581] | 11.2 ± 0.75
TCTATTAACTGATGTGCATGTTATAACCTAGAAGTA [TGCATGCA_site359] | 10.1 ± 0.2
AGTTCGAATATATAAAGTACATAATTATATATTTGC [XGTACX_site2604] | 11.1 ± 0.62
TAATATCATTTAGACACACACTCTTACAATATGTAA [CACACA_site5434] | 9.985 ± 0.021
TTACACATATTATATATATATAAAAAAAAAAAATAT [CACACA_negctrl_site1684] | 9.82 ± 0.29
AAAAATCGATACAAGCGTACAAAATAAAATAAAAAT [XGTACX_site5546] | 11.3 ± 0.92
ACCAATAATATACATACACACATAAAGGTTTATATA [CACACA_site315] | 9.91 ± 0.042

Sequence | gcPBM binding intensity (ln)
TAATAAATATATAATTGTACTTAAAAGAATATAAAA [XGTACX_site2928] | 11.1 ± 0.75
AATATATACCAACATAAATATATATATATATATATA [TGCATGCA_negctrl_site334] | 10.1 ± 0.55
AAGTGTATATAAAAATGTACATATTTCGATTTAAAT [XGTACX_site4161] | 11.2 ± 0.76
TAATAAAACATATATACACACATTATGTATACATAT [CACACA_site1703] | 10.1 ± 0.11
TTAATTTGTAAATAATGTACATATAAATGGAAAGTA [XGTACX_site2743] | 11.2 ± 0.67
TATTTATTAAAACACACACACACACCGACAAAATAA [CACACA_site4293] | 10.5 ± 0.47
AAATATGTCAAATATACACACATAATAACTAGAATA [CACACA_site7151] | 9.865 ± 0.064
TTTTTTAATATTTATACATGCATGCCGATTACTATA [TGCATGCA_site26] | 9.99 ± 0.15
AATAATTATAATAAGGGTACGTATCTCACAGGAAAA [XGTACX_site4187] | 11.2 ± 0.67
TTAATATTTACAAAATGTACAGATTATTTATTGTTG [XGTACX_site1270] | 10.8 ± 0.55
ACAATACAAATATATACACACATACATACATACATA [CACACA_site5699] | 10.2 ± 0.24
TTACACATAAATACCATATAAATATAATGCATATCT [CACACA_negctrl_site1731] | 9.895 ± 0.021
ATAAAGAAAAGGAACACACAAATATGTAAATATGTA [CACACA_site6356] | 10.06 ± 0.085
CATTTGCACACGCACACACACATAAAAAGAAAAATA [CACACA_site6297] | 10.5 ± 0.46
TAAAATATTATCTACGCACACATTAAAATAAAAAAA [CACACA_site3709] | 10.2 ± 0.28
AAAACATTATTCCATACACACCATACTTTTTAATAA [CACACA_site7326] | 10.2 ± 0.16
TATGTAGATAAATAAGCACACACCAAACATATAAAA [CACACA_site1182] | 10.31 ± 0.078
ATCAGTCGAGATGACAGTACACAGTAGCCAGGAAAT [XGTACX_site4932] | 10.9 ± 0.52
TATATATATTTAAAAAGTACAAAAAAAAAAAATGAA [XGTACX_site374] | 11.3 ± 0.65
AAACAAATGTATATGTGTACTTATTTTTTTGTATGT [XGTACX_site7134] | 11.6 ± 1
CCCTGAGCACTTTCGTGTACTAATAGTAACAATAAT [XGTACX_site1418] | 11.4 ± 0.86
AATAATAAACACAATCAAATAAAATATGAAATATAA [GTGCAC_negctrl_site307] | 9.52 ± 0.24
